T1: human alpha2-Antiplasmin (human, UniProt P08697 40-491)
T1 construct: Bought (antibodies online, ABIN2544306); also called human A2AP; a2AP
T1 sequence: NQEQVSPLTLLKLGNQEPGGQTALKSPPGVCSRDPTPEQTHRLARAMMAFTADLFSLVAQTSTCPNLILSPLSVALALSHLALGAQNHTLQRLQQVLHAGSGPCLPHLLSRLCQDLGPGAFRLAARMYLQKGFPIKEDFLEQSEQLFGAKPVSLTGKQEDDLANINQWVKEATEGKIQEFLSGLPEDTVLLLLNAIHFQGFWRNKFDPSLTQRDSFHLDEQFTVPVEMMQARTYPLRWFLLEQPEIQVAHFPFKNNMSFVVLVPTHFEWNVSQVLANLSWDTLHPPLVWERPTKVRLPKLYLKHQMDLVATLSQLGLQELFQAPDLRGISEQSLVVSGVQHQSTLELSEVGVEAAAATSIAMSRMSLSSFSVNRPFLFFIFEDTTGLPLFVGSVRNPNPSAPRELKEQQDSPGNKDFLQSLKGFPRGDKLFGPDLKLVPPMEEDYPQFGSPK

T2: rabbit alpha2-Antiplasmin (rabbit (Oryctolagus cuniculus))
T2 construct: Made in house in HEK293 cells, purified by Ni-IMAC and SEC (a His tag is implied but not described); also called rabbit A2AP; Oryctolagus cuniculus A2AP
T2 chain: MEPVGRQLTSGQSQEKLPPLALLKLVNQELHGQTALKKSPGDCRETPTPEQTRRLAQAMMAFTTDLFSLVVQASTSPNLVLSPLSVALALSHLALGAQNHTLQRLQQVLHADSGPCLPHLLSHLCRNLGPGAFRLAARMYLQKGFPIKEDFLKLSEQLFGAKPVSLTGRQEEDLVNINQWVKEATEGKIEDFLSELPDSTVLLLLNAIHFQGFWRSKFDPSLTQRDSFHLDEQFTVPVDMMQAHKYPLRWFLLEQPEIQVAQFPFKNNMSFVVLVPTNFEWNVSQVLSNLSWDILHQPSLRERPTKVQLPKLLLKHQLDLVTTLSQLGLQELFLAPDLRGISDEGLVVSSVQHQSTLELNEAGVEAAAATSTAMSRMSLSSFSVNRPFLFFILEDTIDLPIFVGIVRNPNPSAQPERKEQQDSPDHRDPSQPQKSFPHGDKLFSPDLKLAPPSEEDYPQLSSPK

T3: cynomolgus alpha2-Antiplasmin (cynomolgus (Macaca fascicularis), UniProt P08697 28-491 (human entry))
T3 construct: Made in house in the same way as the rabbit protein; also called cynomolgus A2AP; Macaca fascicularis A2AP
T3 chain: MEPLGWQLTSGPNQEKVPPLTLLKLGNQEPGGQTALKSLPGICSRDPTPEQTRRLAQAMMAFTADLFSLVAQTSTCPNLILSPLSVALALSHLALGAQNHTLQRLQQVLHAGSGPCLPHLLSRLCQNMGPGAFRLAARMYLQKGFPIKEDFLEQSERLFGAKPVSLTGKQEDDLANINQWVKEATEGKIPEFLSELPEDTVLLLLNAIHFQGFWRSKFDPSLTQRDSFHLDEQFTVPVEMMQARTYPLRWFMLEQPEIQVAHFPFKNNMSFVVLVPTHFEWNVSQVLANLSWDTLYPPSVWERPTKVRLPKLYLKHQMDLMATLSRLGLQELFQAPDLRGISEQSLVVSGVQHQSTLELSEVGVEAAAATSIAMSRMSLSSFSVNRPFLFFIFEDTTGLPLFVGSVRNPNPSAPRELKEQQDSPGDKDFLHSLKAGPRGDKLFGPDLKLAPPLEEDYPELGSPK


Columns and labels:
[1] = biological target: human Plasmin (human, UniProt P00747 97-580; P00747 581-810, limits assumed); test: cell-based or functional assay
[2] = biological target: T1, human alpha2-Antiplasmin; test: SPR Biacore T200, antibody captured on protein G chip, A2AP as analyte, 25 C
Protocol: (§1) Binding assays were performed on a Biacore T200 instrument at 25° C. with a protein G sensor chip and assay buffer HBS-EP+. Antibodies were captured to ˜150 RU and analytes were used at concentrations between 1.56 and 200 nM for full kinetics. As interaction partner, alpha2-Antiplasmin from human, cynomolgus and rabbit was used. Regeneration was performed with glycine-HCl pH 1.5. Kinetic parameters were derived by fitting experimental sensorgrams to a 1:1 Langmuir binding model.

[3] = biological target: T2, rabbit alpha2-Antiplasmin; test: as above
Protocol: as §1

[4] = biological target: T3, cynomolgus alpha2-Antiplasmin; test: as above
Protocol: as §1

[5] = biological target: T2, rabbit alpha2-Antiplasmin; test: cell-based or functional assay
[6] = biological target: T1, human alpha2-Antiplasmin; test: cell-based or functional assay
[7] = biological target: T1, human alpha2-Antiplasmin; test: cell-based or functional assay; remark: listed apart in the source
[8] = biological target: T1, human alpha2-Antiplasmin; test: ELISA (Example 3), human alpha2-Antiplasmin coated, RFU
Protocol: A standard ELISA format was used for analyzing the binding affinity of Fabs of this invention to human and rabbit alpha-2-Antiplasmin, respectively. Antigens were coated to black 384 well Maxisorp microtiter plates (Nunc; catalogue number 460518), diluted to a concentration of 1 μg/ml in 1× Coating Buffer (Candor Bioscience; catalogue number 121125). Plates were incubated overnight at 4° C. After overnight incubation, plates were washed 2× with 50 μl/well using PBS+0.05% Tween 20. Following this, 50 μl/well of blocking buffer (Smart Block; Candor Bioscience; catalogue number 113500) was added and the plates were incubated for 1 hour at room temperature. Afterwards, plates were washed for 3× using […] PBS+0.05% Tween 20 buffer. Fabs of this invention were added at different concentrations in a final volume of 30 μl/well. Plates were incubated for 1 hour at room temperature. […]
(§2) For measurement, the Infinite f500 reader (Tecan) was used. Measurement mode: Fluorescence; Top reading; Ex 535 nm; Em 590 nm.
According to the method described in Example 3, these 12 antibodies were tested for ability to bind human and rabbit alpha2-Antiplasmin in a dose-dependent manner. Data generated were analyzed using the GraphPadPrism software. The binding activities of the antibodies were calculated as EC50 values. […]

[9] = biological target: T1, human alpha2-Antiplasmin; test: ELISA, coated antigen, quantified unpurified antibody, 1st exp.
[10] = biological target: T1, human alpha2-Antiplasmin; test: ELISA, coated antigen, quantified unpurified antibody, 2nd exp.
[11] = biological target: T1, human alpha2-Antiplasmin; test: ELISA, coated antigen, quantified unpurified antibody, 3rd exp.
Protocol: A standard ELISA format was used for analyzing the binding affinity of Fabs of this invention to human and rabbit alpha-2-Antiplasmin, respectively. Antigens were coated to black 384 well Maxisorp microtiter plates (Nunc; catalogue number 460518), diluted to a concentration of 1 μg/ml in 1× Coating Buffer (Candor Bioscience; catalogue number 121125). Plates were incubated overnight at 4° C. After overnight incubation, plates were washed 2× with 50 μl/well using PBS+0.05% Tween 20. Following this, 50 μl/well of blocking buffer (Smart Block; Candor Bioscience; catalogue number 113500) was added and the plates were incubated for 1 hour at room temperature. Afterwards, plates were washed for 3× using […] PBS+0.05% Tween 20 buffer. Fabs of this invention were added at different concentrations in a final volume of 30 μl/well. Plates were incubated for 1 hour at room temperature. Following this incubation step, plates were washed for 3× using 50 μl/well of a PBS+0.05% Tween 20 buffer. For the detection of bound Fabs and full-length antibodies, the anti-Human Lambda Light Chains (Bound and Free)—Peroxidase antibody (Sigma; catalogue number A5175) was diluted by the factor of 1:10.000 in 10% Blocking Buffer. […]
as §2

Sequence of UniProt P00747 (P00747 97-580 limits assumed, chain 1 of 2): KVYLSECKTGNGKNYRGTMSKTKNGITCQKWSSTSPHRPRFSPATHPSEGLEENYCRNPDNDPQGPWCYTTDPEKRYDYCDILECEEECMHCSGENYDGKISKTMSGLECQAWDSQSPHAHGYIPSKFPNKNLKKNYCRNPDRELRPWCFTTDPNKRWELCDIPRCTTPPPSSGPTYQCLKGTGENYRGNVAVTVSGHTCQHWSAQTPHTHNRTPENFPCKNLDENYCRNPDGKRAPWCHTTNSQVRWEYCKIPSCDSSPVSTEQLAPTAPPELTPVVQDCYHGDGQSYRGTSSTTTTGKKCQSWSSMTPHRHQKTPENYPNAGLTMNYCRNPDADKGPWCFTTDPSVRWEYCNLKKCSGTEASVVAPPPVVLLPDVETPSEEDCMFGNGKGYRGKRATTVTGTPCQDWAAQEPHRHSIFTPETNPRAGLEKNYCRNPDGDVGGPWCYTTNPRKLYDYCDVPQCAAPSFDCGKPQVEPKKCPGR
Sequence of UniProt P00747 (P00747 581-810 limits assumed, chain 2 of 2): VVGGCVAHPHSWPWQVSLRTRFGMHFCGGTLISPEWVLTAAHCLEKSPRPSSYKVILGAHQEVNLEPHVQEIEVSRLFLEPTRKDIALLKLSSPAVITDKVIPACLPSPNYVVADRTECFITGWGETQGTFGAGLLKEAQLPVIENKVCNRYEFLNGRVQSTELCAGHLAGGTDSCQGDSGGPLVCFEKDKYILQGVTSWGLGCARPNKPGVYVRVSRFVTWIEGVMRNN

Binder | IC50 [M], inhibition of plasmin proteolytic activity [1] [M] | Kd [2] [nM] | Kd [3] [nM] | Kd [4] [nM] | function blocking IC50, purified antibody, 1st exp. (FIG. 9.3) [5] [nM] | function blocking IC50, purified antibody, 2nd exp. [5] [nM] | function blocking IC50, purified antibody, 3rd exp. [5] [nM] | function blocking activity [IC50 M], 1st exp. [6] [nM] | function blocking activity [IC50 M], 2nd exp. [6] [nM] | function blocking activity [IC50 M], 3rd exp. [6] [nM] | EC50 (read off the curve); function blocking assay (Example 4), RFU of plasmin substrate cleavage [7] [nM] | EC50 (read off the curve) [8] [nM] | EC50 [9] [nM] | EC50 [10] [nM] | EC50 [11] [nM]
TPP-17928 hIgG4 (antibody) heavy: EVQLLESGGGLVQPGGSLRLSCAASGFTFDDYAMSWVRQAPGKGLEWVSAIGTGGSTYYADSVKGRFTISRDNSKNTLYLQMNSLRAEDTAVYYCAREGYDSSGYYHLDYWGQGTLVTVSSASTKGPSVFPLAPCSRSTSESTAALGCLVKDYFPEPVTVSWNSGALTSGVHTFPAVLQSSGLYSLSSVVTVPSSSLGTKTYTCNVDHKPSNTKVDKRV[letters of human IgG4 Fc with S228P (EU numbers) not shown] light: QSVLTQPPSASGTPGQRVTISCTGSSSNIGATYDVHWYQQLPGTAPKLLIYSNNQRPSGVPDRFSGSKSGTSASLAISGLRSEDEADYYCAAWDWSLSGWVFGGGTKLTVLGQPKAAPSVTLFPPSSEELQANKATLVCLISDFYPGAVTVAWKADSSPVKAGVETTTPSKQSNNKYAASSYLSLTPEQWKSHRSYSCQVTHEGSTVEKTVAPTECS | > 1e-05 | 1 | 5 | 2 |  |  |  |  |  |  |  |  |  |  | 
TPP-17044 hIgG1 (antibody, Germline variant of TPP-14308) heavy: EVQLLESGGGLVQPGGSLRLSCAASGFTFDDYAMSWVRQAPGKGLEWVSAIGTGGSTYYADSVKGRFTISRDNSKNTLYLQMNSLRAEDTAVYYCAREGYDSSGYYHLDYWGQGTLVTVSS[letters of human IgG1 constant region not shown] light: QSVLTQPPSASGTPGQRVTISCTGSSSNIGATYDVHWYQQLPGTAPKLLIYSNNQRPSGVPDRFSGSKSGTSASLAISGLRSEDEADYYCAAWDWSLSGWVFGGGTKLTVLGQPKAAPSVTLFPPSSEELQANKATLVCLISDFYPGAVTVAWKADSSPVKAGVETTTPSKQSNNKYAASSYLSLTPEQWKSHRSYSCQVTHEGSTVEKTVAPTECS | > 1e-05 | 5.1 | 5.4 | 3.8 | 27 | 36 | 29 | 0.17 | 0.23 | 0.2 | ~0.2 | ~0.04 | 0.037 | 0.049 | 0.1

From US20240010750A1 (Bayer, published 2024)
